Data as given in publication PMC4336329 (PLoS ONE, 2015).
Out of some 310,000 compounds screened, about 14,000 (4.5%) showed an effect of 50% or more. Effects have a minus sign here. The list shows a part of the results.

The compounds below were run against human ether-à-go-go-related gene (hERG) potassium channel (human, UniProt Q12809) (assay: primary screen, population patch clamp on CHO cells stably expressing hERG).
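Also: peak tail current of the secondary pulse compared with the same well before compound.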

Chain of human ether-à-go-go-related gene (hERG) potassium channel (Q12809 whole entry, looked up): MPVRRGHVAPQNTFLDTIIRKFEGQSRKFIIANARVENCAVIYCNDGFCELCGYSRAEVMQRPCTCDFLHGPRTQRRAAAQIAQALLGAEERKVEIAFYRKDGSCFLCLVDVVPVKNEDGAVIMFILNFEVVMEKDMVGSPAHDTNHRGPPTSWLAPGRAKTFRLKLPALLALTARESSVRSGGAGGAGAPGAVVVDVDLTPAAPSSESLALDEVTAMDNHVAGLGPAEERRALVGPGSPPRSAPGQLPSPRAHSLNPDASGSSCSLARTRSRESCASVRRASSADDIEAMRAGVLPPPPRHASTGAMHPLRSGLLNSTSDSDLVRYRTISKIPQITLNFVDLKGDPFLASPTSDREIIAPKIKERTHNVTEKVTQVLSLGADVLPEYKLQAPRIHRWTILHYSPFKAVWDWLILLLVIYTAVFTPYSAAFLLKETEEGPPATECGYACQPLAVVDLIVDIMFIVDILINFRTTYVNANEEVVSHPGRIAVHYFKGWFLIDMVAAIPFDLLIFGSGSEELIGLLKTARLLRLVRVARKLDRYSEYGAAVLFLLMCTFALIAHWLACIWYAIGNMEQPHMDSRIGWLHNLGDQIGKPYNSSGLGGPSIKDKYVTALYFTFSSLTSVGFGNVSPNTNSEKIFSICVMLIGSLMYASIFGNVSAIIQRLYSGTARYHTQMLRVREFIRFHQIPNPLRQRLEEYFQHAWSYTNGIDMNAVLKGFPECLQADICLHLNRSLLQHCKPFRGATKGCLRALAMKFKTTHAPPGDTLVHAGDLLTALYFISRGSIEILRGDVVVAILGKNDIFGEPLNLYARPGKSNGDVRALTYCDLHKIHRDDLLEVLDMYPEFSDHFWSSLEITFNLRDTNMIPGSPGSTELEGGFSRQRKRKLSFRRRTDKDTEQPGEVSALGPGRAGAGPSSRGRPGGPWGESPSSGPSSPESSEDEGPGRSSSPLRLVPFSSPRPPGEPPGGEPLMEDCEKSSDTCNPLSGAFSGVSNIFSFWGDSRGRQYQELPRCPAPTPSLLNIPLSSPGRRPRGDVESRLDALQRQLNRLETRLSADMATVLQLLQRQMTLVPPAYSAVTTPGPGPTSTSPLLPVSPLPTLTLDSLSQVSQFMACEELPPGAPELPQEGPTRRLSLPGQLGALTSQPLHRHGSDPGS

Row | Compound | hERG current change (%, negative = inhibition) at 10uM [%]
1 | O=S(=O)(NCC1CCCO1)c1cc(Br)c(Br)s1 (centres unmarked) | -19.2
2 | COc1cc(/C=C/C(=O)OC(C)C(=O)c2ccccc2)cc(OC)c1OC (centres unmarked) | -1.47
3 | COCCNC(=O)c1c(CSc2ccccc2)noc1C(=O)NCc1ccccc1 | -13.6
4 | O=c1c2ccccc2c(C=Nc2cccc(O)c2)c(O)n1-c1ccc2c(c1)OCO2 | 13.3
5 | COc1cc(C(=O)NCc2ccc(S(N)(=O)=O)cc2)ccc1OCC(=O)Nc1cccc(C(F)(F)F)c1 | 15.5
6 | CCOC(=O)C1=C(C)NC(C)=C(C(=O)OCC)C1C(=O)OCC(=O)NC | 15.5
7 | CSc1ccccc1C(=O)N1CCN(c2cccc(Cl)c2)CC1 | 11.6
8 | COc1ccc(N(CC(=O)NCCC2=CCCCC2)S(C)(=O)=O)cc1 | -16.1
9 | CCN(CC)CCOC(=O)C(c1ccccc1)c1ccccc1.Cl | -52.2
10 | COc1ccc(CCN(Cc2cc3cccc(C)c3[nH]c2=O)C(=O)NC2CCCCC2)cc1OC | -25
11 | O=C(/C=C/c1ccc(Cl)cc1)N(Cc1cccs1)C1CCS(=O)(=O)C1 (centres unmarked) | -72.8
12 | CCCCn1c(=O)c(-c2ccccc2)c(O)c2ccccc21 | 9.13
13 | COc1cc([N+](=O)[O-])c(OC)cc1SCc1n[nH]c(=S)n1-c1ccc(F)cc1 | -0.78
14 | CN(C(=O)c1ccc(NC(=O)Cc2ccc(NC(=O)C3CCN(C(=O)C4CCCCC4)CC3)cc2)cc1)C1CC1 | 8.45
15 | N#Cc1cc(-c2ccc(Cl)cc2)cnc1Sc1ccc(F)cc1 | 10.6
16 | CCCCn1nnnc1SCC(=O)Nc1sc2c(c1C#N)CCCC2 | 2.62
17 | O=C(NCCN1CCN(C(=O)c2cccc(Br)c2)CC1)C(=O)Nc1ccc(Br)cc1 | -42.1
18 | Cc1ccc(O)c(C(=O)CC(=O)c2ccc(C(C)(C)C)cc2)c1 | 15
19 | Cc1ccc(Cl)cc1NC(C#N)c1ccccc1 (centres unmarked) | -10
20 | CC1Cc2nc(SCC(=O)N3CCN(c4ccccc4)CC3)n(CCc3ccccc3)c(=O)c2S1 (centres unmarked) | -47.1
21 | CCSc1nnc(NC(=O)C2CC=CCC2C(=O)O)s1 (centres unmarked) | 8.96
22 | CC1CCN(C(c2cc3cc4c(cc3[nH]c2=O)OCO4)c2nnnn2CC2CCCO2)CC1 (centres unmarked) | -3.99
23 | CN(C)CCOc1ccc2c(c1)Sc1ccccc1CC2=O.Cl | -64.8
